Reference: PMC4336329 (PLoS ONE, 2015)
In all, about 310,000 compounds went through this assay and about 2,200 (0.71%) showed an effect of 50% or more. The effect is printed as a negative number. The list shows a part of the results.

Biological target: human ether-à-go-go-related gene (hERG) potassium channel (human, UniProt Q12809)
Test: primary screen, population patch clamp on CHO cells stably expressing hERG

Chain of human ether-à-go-go-related gene (hERG) potassium channel (Q12809 whole entry, looked up): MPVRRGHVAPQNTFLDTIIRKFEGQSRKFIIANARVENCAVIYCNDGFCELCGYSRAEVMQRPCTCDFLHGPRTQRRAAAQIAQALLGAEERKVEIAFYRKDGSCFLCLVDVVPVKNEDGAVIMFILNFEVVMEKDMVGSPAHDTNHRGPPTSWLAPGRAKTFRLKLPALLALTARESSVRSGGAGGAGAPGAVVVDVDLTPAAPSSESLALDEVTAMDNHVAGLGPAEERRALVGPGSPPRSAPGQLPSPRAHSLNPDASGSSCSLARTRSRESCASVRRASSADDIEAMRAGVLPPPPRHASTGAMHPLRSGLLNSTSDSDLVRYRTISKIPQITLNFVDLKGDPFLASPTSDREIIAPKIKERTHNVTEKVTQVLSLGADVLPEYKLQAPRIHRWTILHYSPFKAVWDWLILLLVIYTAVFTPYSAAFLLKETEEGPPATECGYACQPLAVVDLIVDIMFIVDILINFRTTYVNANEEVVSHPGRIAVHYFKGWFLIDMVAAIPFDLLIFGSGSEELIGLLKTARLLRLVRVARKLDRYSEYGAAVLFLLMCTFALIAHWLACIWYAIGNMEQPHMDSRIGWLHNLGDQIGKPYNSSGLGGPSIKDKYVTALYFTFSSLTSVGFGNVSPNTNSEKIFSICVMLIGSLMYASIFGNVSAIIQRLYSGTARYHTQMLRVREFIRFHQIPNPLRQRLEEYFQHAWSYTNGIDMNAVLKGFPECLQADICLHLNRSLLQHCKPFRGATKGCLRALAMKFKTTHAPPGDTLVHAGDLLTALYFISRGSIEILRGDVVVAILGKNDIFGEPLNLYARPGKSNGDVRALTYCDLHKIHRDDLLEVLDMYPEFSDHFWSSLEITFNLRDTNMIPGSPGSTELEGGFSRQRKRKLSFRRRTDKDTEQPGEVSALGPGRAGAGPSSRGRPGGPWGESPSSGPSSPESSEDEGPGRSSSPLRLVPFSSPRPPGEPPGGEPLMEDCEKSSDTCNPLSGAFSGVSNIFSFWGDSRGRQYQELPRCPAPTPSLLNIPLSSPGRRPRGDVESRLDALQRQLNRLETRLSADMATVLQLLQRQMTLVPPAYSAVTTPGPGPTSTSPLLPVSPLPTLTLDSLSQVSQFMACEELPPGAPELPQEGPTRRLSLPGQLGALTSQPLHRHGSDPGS

| Structure (SMILES) | hERG current change (%, negative = inhibition) at 1uM |
| --- | --- |
| CCCc1nnc(SCC(=O)Nc2ccccc2F)o1 | 9.75% |
| O=C(COc1ccc(Cl)cc1)Nc1ccc2[nH]ncc2c1 | 9.2% |
| Cc1nc2ccccc2n1CC(=O)OCC(=O)NCCc1ccccc1 | 18.8% |
| COC(=O)c1[nH]c2ccc(C)cc2c1NC(=O)Oc1ccccc1 | 9.44% |
| CCOC(=O)c1c(NC(=O)C2CCCCC2)sc2c1CCN(C(C)C)C2.Cl | -42% |
| CC(=O)N1CCN=C1SCc1ccc(C(F)(F)F)cc1 | 7.91% |
| CCOc1cccc(SCc2noc(C(=O)NC(C)C)c2C(=O)O)c1 | 2.57% |
| O=C(CSc1nncs1)NNC(=O)c1ccco1 | 15% |
| CCOC(=O)N1CCN(C(=O)c2ccc(C)c(S(=O)(=O)N3CCCCC3)c2)CC1 | -2.8% |
| COc1cc(/C=N/n2c(C)nc3ccccc3c2=O)ccc1O | 15.5% |
| CCn1cnc2sc(C(=O)O)c(C)c2c1=O | 17.9% |
| Cc1ccc(OCCSc2nc3ccccc3n2CC(=O)O)cc1 | 19% |
| CCOC(=O)c1c(/N=C/C2C(=O)CC(C)(C)CC2=O)sc2c1CCCC2 | 13.1% |
| CCCNC(=O)C1(CC2CC(c3ccccc3)=NO2)CCN(C(=O)c2cc(OCC)c(OCC)c(OCC)c2)CC1 (stereo not shown) | 8.81% |
| CCOC(=O)/C(C#N)=C/C=C1\C=Cc2ccccc2N1CC | 14.8% |
| Cc1ccc(CNC(=O)C2CC3Cn4c(nc5cc(Cl)c(Cl)cc54)C3N2C)o1 (stereo not shown) | -19.7% |
| Cc1c(C)c2ccc(OCC(=O)NCCN3CCOCC3)cc2oc1=O | 24.1% |
| CN(C(=O)c1c[nH]c(=O)cc1C(F)(F)F)c1ccc(Cl)cc1 | 10.8% |
| CN(C)c1oc(-c2ccco2)nc1S(=O)(=O)c1ccc(Br)cc1 | -2.53% |
| O=C(O)c1cccc(S(=O)(=O)Nc2ccc3oc(=O)sc3c2)c1 | 5.37% |
| CCc1ccc(C(=O)/C=C/c2ccc([N+](=O)[O-])o2)cc1 | 6.03% |
| O=C1NC[C@H](c2ccccc2)N(CCc2cc(C(F)(F)F)cc(C(F)(F)F)c2)C1=O | -3.42% |

| Structure (SMILES) | hERG current change (%, negative = inhibition) at 1uM |
| --- | --- |
| COc1ccc2cc(C(=O)NCc3ccccc3)c(=Nc3ccc(C(=O)O)cc3)oc2c1 | 13.9% |
| CC(C)Cc1ccc(C(C)C(N)=Nc2ccc(O)cc2)cc1.Cl (stereo not shown) | -71.8% |
| O=C(Nc1cccc(C(F)(F)F)c1)c1cnccn1 | 7.75% |
| O=C1CC(N2CCC(c3nc4ccccc4o3)CC2)C(=O)N1c1ccc(Cl)c(C(F)(F)F)c1 (stereo not shown) | 7.36% |
| CCCn1c(=NC(=O)c2ccco2)c(C(=O)OCC)cc2c(=O)n3ccccc3nc21 | -6.68% |
| COc1c(Br)cc2c(C)c(C(=O)O)oc2c1Br | 9.64% |
| O=C(NCCN1C(=O)S/C(=C\c2ccc(OC(F)F)cc2)C1=O)C1=COCCO1 | 6.28% |
| Cc1nc2ccc(N3CCN(C)CC3)cc2nc1C | 11.2% |
| CC(=O)Nc1ccc(S(=O)(=O)N(C)CC(=O)OC(C)C(=O)N(C)Cc2ccccc2)cc1 (stereo not shown) | 10.4% |
| O=C(CSc1nncn1-c1cccnc1)Nc1cccc([N+](=O)[O-])c1 | 10.7% |
| COc1ccc(NS(=O)(=O)c2ccc(-c3coc(C)n3)cc2)cc1 | 14.6% |
| CCCCS(=O)(=O)N1CCCC(C(=O)Nc2ccc(Cl)cn2)C1 (stereo not shown) | 5.04% |
| Cn1c2c(c(=O)n(C)c1=O)C(c1cccc([N+](=O)[O-])c1)Nc1ccccc1O2 (stereo not shown) | 0.499% |
| CCCCC(=O)NC(c1ccc(N(C)C)cc1)c1ccc2cccnc2c1O (stereo not shown) | 11.5% |
| O=C(NCCC1=CCCCC1)C1CCN(S(=O)(=O)c2ccccc2)CC1 | 25.5% |
| O=S(=O)(NCc1ccccc1)c1ccc(NC(=S)NCc2ccco2)cc1 | 4.83% |
| Cc1cccc(C(=O)Nc2ccc(NC(=O)CN3CCOCC3)cc2)c1 | 0.661% |
| CC1=C(C(=O)Nc2ccccc2)C(c2cccs2)n2nnnc2N1 (stereo not shown) | 6.76% |
| CCCn1c(SCC(=O)Nc2nnc(CC)s2)nnc1-c1ccncc1 | 12.3% |
| Cc1nn(-c2ccccc2)c(C)c1/C=N/NC(=O)c1cc(-c2ccccc2)n[nH]1 | 0.273% |
| COc1ccc(OC)c(C(C)NC(C)=O)c1 (stereo not shown) | 9.63% |
| COc1cccc(NC(=O)Nc2nc(SC)ns2)c1 | 14.2% |

| Structure (SMILES) | hERG current change (%, negative = inhibition) at 1uM |
| --- | --- |
| Nc1ccccc1C(=O)NCc1ccco1 | 9.22% |
| CCCCn1c(N)c(N(CC(C)C)C(=O)c2ccc(S(=O)(=O)N3CCCCCC3)cc2)c(=O)[nH]c1=O | 8.66% |
| O=[N+]([O-])c1cc(Cl)ccc1NCCc1ccccn1 | 11.1% |
| Cc1cc(/C=C2\SC(=Nc3ccc(N4CCOCC4)cc3)N(C)C2=O)c(C)n1-c1cccnc1 | 17.1% |
| Cc1noc(C)c1C(c1ccccc1)S(=O)(=O)c1ccccc1 (stereo not shown) | 23% |
| Cc1ccc(NC(=S)NCc2cccs2)cc1 | -4.08% |
| COC(=O)c1cc(=O)n(Cc2ccc3c(c2)OCO3)c(=Nc2ccccc2)s1 | 11.3% |
| COc1ccccc1CNC(=O)c1ccc(CS(=O)Cc2cccc(Cl)c2)o1 (stereo not shown) | -7.42% |
| O=c1[nH]c(C2CCN(S(=O)(=O)Cc3ccccc3)CC2)nc2c1nnn2Cc1ccccc1 | 15.2% |
| CC1CCN(C(=O)c2ccc(NS(=O)(=O)c3ccc4[nH]c(=O)[nH]c4c3)cc2)CC1 | 5% |
| COc1ccc(-c2cc(C)no2)cc1S(=O)(=O)N1CCCN(Cc2ccccc2Cl)C1 | 9.61% |
| CCC(C)c1ccc(NS(=O)(=O)c2c(C)[nH]c(=O)[nH]c2=O)cc1 (stereo not shown) | 6.15% |
| CC(C)CC(=O)c1c[nH]c(C(=O)NCc2cccs2)c1 | 4.99% |
| O=C(CCCOc1ccc(Cl)cc1)N1CCOCC1 | 3.39% |
| C/C(=N\NC(=S)NCc1ccccc1)c1ccc(C#N)cc1 | 12.3% |
| Cc1nc(CNS(=O)(=O)c2ccc3ccccc3c2)cs1 | 14.8% |
| CCN(C(=O)COC(=O)c1ccco1)c1c(N)n(Cc2ccccc2)c(=O)[nH]c1=O | 4.1% |
| O=C(OCC(=O)N1CCCc2ccccc21)c1cc(S(=O)(=O)N2CCOCC2)ccc1O | -12.5% |
| CC1(C)CC(=O)C2=C(C1)OC1=C(C(=O)CC(C)(C)C1)C2c1ccc(O)cc1O | -13.7% |
| CC(=O)c1ccc(S(=O)(=O)N(C)CC(=O)NCC2CCCCC2)cc1 | 6.7% |
| C=CCn1c(=O)c(C(=O)NCc2ccc3c(c2)OCO3)c(O)c2cc(OC)c(OC)cc21 | 14% |
| COc1ccccc1NS(=O)(=O)c1ccc(S(=O)(=O)N2CCOCC2)cc1 | 1.8% |

| Structure (SMILES) | hERG current change (%, negative = inhibition) at 1uM |
| --- | --- |
| O=C(COC(=O)c1cccc(O)c1)NC(=O)Cc1ccccc1 | 3.34% |
| Cc1ccc(C(=O)NNC2=NC(C)(C)Cc3ccccc32)cc1.Cl | 5.77% |
| OC1C[N+]2(CCCCC2)C1.[Cl-] | 7.82% |
| CN(c1cccc(NC(=O)c2ccccc2N(C)S(=O)(=O)c2ccccc2)c1)S(C)(=O)=O | 13.5% |
| COC(=O)c1cccc2c1-c1ccccc1/C2=N/O | -8.96% |
| COc1ccccc1N1CCN(C(=O)c2cc(=O)c3ccc(C)cc3o2)CC1 | 1.21% |
| OC(CNCCc1ccccc1)COc1ccc(OCC(O)CNCCc2ccccc2)cc1 (stereo not shown) | 9.96% |
| Clc1ccc(-c2nnn(Cc3nc4ccccc4s3)n2)cc1 | 3.79% |
| O=C(Nc1ccc(CN2CCOCC2)cc1)c1cc2ccccc2o1 | -12.1% |
| O=C(CC(=O)c1ccccc1)Nc1cc(C(F)(F)F)ccc1Cl | 3.87% |
| COc1ccccc1NC(=O)Nc1ccc(C(N)=O)cc1 | 3.57% |
| Cc1nnc(NC(=O)Cn2nc(C)c3ccccc3c2=O)s1 | 12% |
| Nc1ccc(C(=O)N2CCN(S(=O)(=O)c3ccc4c(c3)OCCO4)CC2)cc1[N+](=O)[O-] | 10.2% |
| CN(CC(=O)Nc1ccc(Cl)c(C(F)(F)F)c1)C(=O)c1cn2ccccc2n1 | 5.27% |
| NNC(=O)C1=NOC(CNc2ncc(C(F)(F)F)cc2Cl)C1 (stereo not shown) | -1.7% |
| Cc1ccc(SC(C)C(=O)NCc2cccnc2)cc1 (stereo not shown) | 7.77% |
| COc1ccc(Cl)cc1NC(=O)C/C(C)=N/NC(=O)C(=O)NCc1ccccc1 | 12.1% |
| Nc1ncn(-c2ncc(C(F)(F)F)cc2Cl)n1 | 14.5% |
| COc1ccc(CC(=O)NCc2nnc(SCc3ccc([N+](=O)[O-])cc3)n2C)cc1 | -28.2% |
| O=C(c1ccc2c3n(nc2c1)-c1ccccc1CO3)N1CCCCC1 | 3.07% |
| O=[N+]([O-])c1cccc(/C=N/n2c(-c3cccnc3)n[nH]c2=S)c1 | 9.23% |
| O=C(CN1C(=O)S/C(=C\c2ccc(Cl)cc2)C1=O)NC1C=CS(=O)(=O)C1 (stereo not shown) | 6.73% |
